# Measurements: the supplement of paper PMC4604168 (melanoma cell lines)
# This is one part of the list. Single values are uncertain, as repeats are few or missing.
# Test system: WM1716
# Experiment: cell count relative to DMSO control; melanoma cells; higher = more viable cells
# Conditions: library dose: standard library concentration; 72 h
# 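Note: cells treated in 1,536-well plates, then fixed and DAPI-stained, with nuclei counted from automated high-throughput microscope images.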
row,SMILES,cell count
1,"Cc1ccc(Nc2nccc(N(C)c3ccc4c(C)n(C)nc4c3)n2)cc1S(N)(=O)=O [Pazopanib] + Cc1cc([N+](=O)[O-])ccc1NS(=O)(=O)c1cc(Cl)ccc1Cl [FH535] (first compound 2 µM, partner dose 5 µM)",48.9%
2,"O=C(/C=C/c1cccnc1)NCCCCC1CCN(C(=O)c2ccccc2)CC1 + Oc1nc(-c2ccc(C(F)(F)F)cc2)nc2c1CSCC2 [XAV939] (first compound 0.05 µM, partner dose 10 µM)",59.2%
3,"CC1(C)CCC(c2ccc(Cl)cc2)=C(CN2CCN(c3ccc(C(=O)NS(=O)(=O)c4ccc(N[C@H](CCN5CCOCC5)CSc5ccccc5)c(S(=O)(=O)C(F)(F)F)c4)cc3)CC2)C1 + COc1ccc(COc2ccc(Cc3cnc(N)nc3N)cc2OC)cc1 [GW2580] (first compound 2 µM, partner dose 5 µM)",61.1%
4,"O=C(/C=C/c1cccnc1)NCCCCC1CCN(C(=O)c2ccccc2)CC1 + NCC(=O)Nc1ccc(-n2nc(C(F)(F)F)cc2-c2ccc3c(ccc4ccccc43)c2)cc1 [OSU03012] (first compound 0.05 µM, partner dose 5 µM)",71.1%
5,"CC1(C)CCC(c2ccc(Cl)cc2)=C(CN2CCN(c3ccc(C(=O)NS(=O)(=O)c4ccc(N[C@H](CCN5CCOCC5)CSc5ccccc5)c(S(=O)(=O)C(F)(F)F)c4)cc3)CC2)C1 + O=C(Nc1cccc(Cl)c1)Nc1ncc(CCNc2ncnc3ccsc23)s1 [SNS314] (first compound 2 µM, partner dose 0.004 µM)",20%
6,"CC1(C)CCC(c2ccc(Cl)cc2)=C(CN2CCN(c3ccc(C(=O)NS(=O)(=O)c4ccc(N[C@H](CCN5CCOCC5)CSc5ccccc5)c(S(=O)(=O)C(F)(F)F)c4)cc3)CC2)C1 + Oc1nc(-c2ccc(C(F)(F)F)cc2)nc2c1CSCC2 [XAV939] (first compound 2 µM, partner dose 10 µM)",35.6%
7,"O=C(/C=C/c1cccnc1)NCCCCC1CCN(C(=O)c2ccccc2)CC1 + O=C(O)C(=O)Nc1sc2c(c1C(=O)O)CCNC2 [TCS401] (first compound 0.05 µM, partner dose 8.33333 µM)",74%
8,"O=C(/C=C/c1cccnc1)NCCCCC1CCN(C(=O)c2ccccc2)CC1 + O=C(Nc1ccccc1)c1cc([N+](=O)[O-])ccc1Cl [GW9662] (first compound 0.05 µM, partner dose 10 µM)",93.7%
9,"CC1(C)CCC(c2ccc(Cl)cc2)=C(CN2CCN(c3ccc(C(=O)NS(=O)(=O)c4ccc(N[C@H](CCN5CCOCC5)CSc5ccccc5)c(S(=O)(=O)C(F)(F)F)c4)cc3)CC2)C1 + N#Cc1c(O)c2c(-c3ccc(-c4ccccc4O)cc3)csc2[nH]c1=O [A769662] (first compound 2 µM, partner dose 10 µM)",69%
10,"CC1(C)CCC(c2ccc(Cl)cc2)=C(CN2CCN(c3ccc(C(=O)NS(=O)(=O)c4ccc(N[C@H](CCN5CCOCC5)CSc5ccccc5)c(S(=O)(=O)C(F)(F)F)c4)cc3)CC2)C1 + COc1cc2ncnc(Nc3ccc(Oc4ccccc4)cc3)c2cc1OC [SrcI1] (first compound 2 µM, partner dose 10 µM)",57.9%
11,"O=C(/C=C/c1cccnc1)NCCCCC1CCN(C(=O)c2ccccc2)CC1 + N#Cc1c(O)c2c(-c3ccc(-c4ccccc4O)cc3)csc2[nH]c1=O [A769662] (first compound 0.05 µM, partner dose 10 µM)",67.4%
12,"CC1(C)CCC(c2ccc(Cl)cc2)=C(CN2CCN(c3ccc(C(=O)NS(=O)(=O)c4ccc(N[C@H](CCN5CCOCC5)CSc5ccccc5)c(S(=O)(=O)C(F)(F)F)c4)cc3)CC2)C1 + CCCCCCCCc1ccc(CCC(N)(CO)CO)cc1 [fingolimod] (first compound 2 µM, partner dose 10 µM)",15.6%
13,"CC1(C)CCC(c2ccc(Cl)cc2)=C(CN2CCN(c3ccc(C(=O)NS(=O)(=O)c4ccc(N[C@H](CCN5CCOCC5)CSc5ccccc5)c(S(=O)(=O)C(F)(F)F)c4)cc3)CC2)C1 + O=S(=O)(c1ccccc1)N(CC(F)(F)F)c1ccc(C(O)(C(F)(F)F)C(F)(F)F)cc1 [T0901317] (first compound 2 µM, partner dose 7 µM)",54%
